This list was built around the results that the source calls inconclusive (neither active nor inactive); the mix of calls is not that of the screen. For some of these results: Where the call is inconclusive, the potency comes from a doubtful curve fit. For some of these results: “Side channel” marks fits to a control or component signal instead of the main read-out. The source made the active and inactive calls. Unless noted, the call rests on the fitted dose curve.
Experiments:
[1] = target: Estrogen receptor (Homo sapiens) (UniProt P03372); assay: qHTS assay for small molecule antagonists of estrogen receptor alpha signaling (AID 588513; active means well fitted curve in the direction sought with a large enough effect in the signal ratio, with a control signal flat, not every such curve was filed as active; inconclusive means small, poorly fitted or top-dose-only effect, or effect the other way, or a change in a side signal; inactive means no such curve, though single readings can be large or run the other way; the % refers to the signal ratio; further: potency means the concentration at half of the fitted maximal effect; on activity, negative = inhibition: on the % scale 0 is the no-effect control and ±100 the full control effect); conditions: ER-alpha-UAS-bla HEK293, beta-lactamase ratio, antagonist mode; activity, negative = inhibition: at 76.9 µM (top of the series) unless noted
Summary of the method: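 Fluorescence from CCF4 substrate after 2 h at room temperature gave reporter activity; cells had been exposed to compound and 0.5nM 17-beta-estradiol for 18 h at 37 C. Hill-equation fitting yielded IC50 and maximal response.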

[2] = target: Estrogen receptor (Homo sapiens) (UniProt P03372); assay: qHTS assay for small molecule agonists of estrogen receptor alpha signaling (AID 588514); conditions: ER-alpha-UAS-bla HEK293, beta-lactamase ratio, 18 h; activation: at 76.8 µM (top of the series), percent of full estradiol response, vehicle zero unless noted; further: nearly all actives have a fitted effect of over 70% in size; further: potency means the concentration at half of the fitted maximal effect;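 on activation: 0% = vehicle only and 100% = reference agonist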
Summary of the method: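 Fluorescence from CCF4 cleavage reports ER-alpha-driven beta-lactamase expression in HEK 293 cells treated 18 hrs at 37 C. Data normalized to 17-beta-estradiol (20 nM) and DMSO, fitted to Hill equation.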

[3] = target: Peroxisome proliferator-activated receptor delta (Homo sapiens) (UniProt Q03181); assay: qHTS assay for small molecule antagonists of peroxisome proliferator-activated receptor delta signaling (AID 588535; active means well fitted inhibition curve with a large enough effect in the signal ratio, with a control signal flat, not every such curve was filed as active; inconclusive means small, poorly fitted or top-dose-only effect, or effect the other way, or a change in a side signal; inactive means no such curve, though single readings can be large or run the other way; the % refers to the signal ratio; further: potency means the concentration at half of the fitted maximal effect); conditions: HEK293T PPARd-UAS-bla, beta-lactamase FRET ratio, 18 h; activity change, negative = inhibition: at 76.7 µM (top of the series) unless noted
Summary of the method: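 Beta-lactamase reporter read-out (405 nm excitation, 460/530 nm emission) after CCF4 loading for 2 hrs at RT. HEK293T PPAR-delta-UAS-bla cells, 2% charcoal/dextran FBS, compounds for 18 hrs at 37 C. Hill fit gave IC50 and efficacy.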

[4] = qHTS assay for small molecule agonists of the antioxidant response element (ARE) signaling pathway (AID 651741; active means well fitted activation curve with a large enough effect in the signal ratio; inconclusive means small, poorly fitted or top-dose-only effect, or effect the other way, or a change in a side signal; the % refers to the signal ratio; further: potency means the concentration at half of the fitted maximal effect; on activation: % of control where 0% means no effect); conditions: HepG2 ARE-bla reporter, beta-lactamase FRET ratio, 16 h; activation: at 96 µM (top of the series) unless noted
Summary of the method: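 HepG2 ARE-bla reporter cells, 2,000/well; 5 h settle at 37 C/5% CO2; compound pin transfer (23 nL, DMSO); 16 h at 37 C; LiveBLAzer B/G FRET substrate, 2 h RT; fluorescence intensity read.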

[5] = target: Thyroid hormone receptor beta (Homo sapiens) (UniProt P10828); assay: qHTS assay for small molecule antagonists of thyroid hormone receptor beta signaling (AID 588547; active means well fitted inhibition curve with a large enough effect in the signal ratio, with a control signal flat, not every such curve was filed as active; inconclusive means small, poorly fitted or top-dose-only effect, or effect the other way, or a change in a side signal; the % refers to the signal ratio; further: potency means the concentration at half of the fitted maximal effect;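 on activity change % (negative = inhibition): cells stimulated with 0.4 nM T3 agonist during compound exposure; on the % scale 0 is the no-effect control and ±100 the full control effect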); conditions: TR-UAS-bla HEK293, beta-lactamase ratio, antagonist mode, 18 h
Summary of the method: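 TR-UAS-bla GripTite HEK293 cells in 2% charcoal/dextran FBS medium; compounds 0.59 nM to 92 uM with T3 at 0.4nM final, 18 h at 37 C. Beta-lactamase read by CCF4 fluorescence (460/530 nm); Hill fits gave IC50 and efficacy.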

[6] = qHTS assay for small molecule agonists of the antioxidant response element (ARE) signaling pathway measured by Nrf2-dependant transcriptional activity - cell viability counter screen (AID 720653; active means well fitted curve in the direction sought with a large enough effect in the repeat runs; inconclusive means weak or mixed curves; inactive means no such curve, though single readings can be large; an effect the other way counts as inactive or inconclusive; further: on the % scale 0 is the no-effect control and ±100 the full control effect); conditions: ARE-bla HepG2 viability, CellTiter-Glo ATP luminescence, 16 h; max response: active compounds read low
Summary of the method: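 ARE-bla HepG2 cells treated with compounds for 16 h at 37C; this counter screen measures viability as intracellular ATP by CellTiter-Glo luminescence after 30 min at room temperature.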

[7] = qHTS assay for cell viability of HEK293 cells (AID 743288; active means well fitted curve in the direction sought with a large enough effect; inconclusive means small, poorly fitted or top-dose-only effect, or another doubt; inactive means no such curve, though single readings can be large; an effect the other way counts as inactive or inconclusive; further: potency means the concentration at half of the fitted maximal effect; nearly all actives have a fitted effect of over 50% in size); conditions: ATP luminescence (CellTiter-Glo), 18 h; max response: active compounds read low
Summary of the method: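 Viable-cell counts were inferred from luciferase-based ATP content in HEK293 cells seeded at 2,000/well, pre-incubated ≥5 h, then dosed with DMSO-solubilised compounds for 18 h at 37 C.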

[8] = target: Peroxisome proliferator-activated receptor delta (Homo sapiens) (UniProt Q03181); assay: qHTS assay for small molecule agonists of peroxisome proliferator-activated receptor delta signaling (AID 588534); conditions: HEK293T PPARdelta-UAS-bla, beta-lactamase ratio, 18 h; activation: at 76.7 µM (top of the series) unless noted; further: potency means the concentration at half of the fitted maximal effect
Summary of the method: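 EC50 and efficacy values derive from Hill fits of a concentration series in a beta-lactamase reporter cell assay. Exposure is 18 hrs at 37 C, with CCF4 fluorescence as the readout.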

[9] = target: Peroxisome proliferator-activated receptor gamma (Homo sapiens) (UniProt P37231); assay: qHTS assay for small molecule agonists of peroxisome proliferator-activated receptor gamma signaling (AID 588536; active means well fitted curve in the direction sought with a large enough effect in the signal ratio, with a control signal flat, not every such curve was filed as active; inconclusive means small, poorly fitted or top-dose-only effect, or effect the other way, or a change in a side signal; inactive means no such curve, though single readings can be large or run the other way; the % refers to the signal ratio; further: potency means the concentration at half of the fitted maximal effect;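 on activation: 0% = DMSO basal wells and 100% = rosiglitazone at 2 µM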); conditions: HEK293 PPARg-UAS-bla, beta-lactamase ratio, 16 h; activation: at 76.7 µM (top of the series), percent of rosiglitazone response, DMSO as zero
Summary of the method: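 Using GeneBLAzer HEK293 cells, response was quantified by CCF4 fluorescence and normalized between basal DMSO (0%) and rosiglitazone 2 uM (100%); curves yielded half-maximal stimulation concentration and efficacy.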

[10] = target: Peroxisome proliferator-activated receptor gamma (Homo sapiens) (UniProt P37231); assay: qHTS assay for small molecule antagonists of peroxisome proliferator-activated receptor gamma signaling (AID 588537; active means well fitted inhibition curve with a large enough effect in the signal ratio, with a control signal flat, not every such curve was filed as active; inconclusive means small, poorly fitted or top-dose-only effect, or effect the other way, or a change in a side signal; the % refers to the signal ratio;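 further: reporter cells co-stimulated with 50 nM rosiglitazone agonist during compound treatment; % of control where 0% means no effect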); conditions: HEK293 PPARg-UAS-bla, beta-lactamase ratio, antagonist mode
Summary of the method: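 Read-out: CCF4 fluorescence (ex 405, em 460/530 nm) after 2 h at RT. Cells were HEK293 carrying a UAS-bla reporter and treated 16 h at 37 C with compound plus rosiglitazone (50 nM final). Normalized to rosiglitazone and DMSO.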

[11] = target: Vitamin D3 receptor (Homo sapiens) (UniProt P11473); assay: qHTS assay for small molecule antagonists of vitamin D receptor signaling (AID 588541); conditions: HEK293T VDR-UAS-bla, beta-lactamase ratio, antagonist mode; activity change, negative = inhibition: at 76.7 µM (top of the series); further: potency means the concentration at half of the fitted maximal effect
[12] = target: Retinoic acid receptor RXR-alpha (Homo sapiens) (UniProt P19793); assay: qHTS assay for small molecule agonists of retinoid X receptor alpha signaling (AID 588544); conditions: HEK293T RXRa-UAS-bla, beta-lactamase reporter, 18 h; activation: at 76.7 µM (top of the series); further: potency means the concentration at half of the fitted maximal effect
[13] = target: Retinoic acid receptor RXR-alpha (Homo sapiens) (UniProt P19793); assay: qHTS assay for small molecule antagonists of retinoid X receptor alpha signaling (AID 588546; active means well fitted inhibition curve with a large enough effect in the signal ratio, with a control signal flat, not every such curve was filed as active; inconclusive means small, poorly fitted or top-dose-only effect, or effect the other way, or a change in a side signal; inactive means no such curve, though single readings can be large or run the other way; the % refers to the signal ratio; further: potency means the concentration at half of the fitted maximal effect); conditions: HEK293T RXRa-UAS-bla, beta-lactamase ratio, antagonist mode
Summary of the method: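 Beta-lactamase reporter inhibition, read as CCF4 fluorescence ratio (ex 405, em 460/530 nm) after 2 h at RT. HEK293T UAS-bla cells, 2500/well, were stimulated with 9-cis-RA at 500 or 100 nM final alongside test compound for 18 h at 37 C.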

[14] = qHTS assay for small molecule agonists of the antioxidant response element (ARE) signaling pathway measured by Nrf2-dependant transcriptional activity (AID 720636; active means well fitted curve in the direction sought with a large enough effect in the repeat runs; inconclusive means weak or mixed curves; inactive means no such curve, though single readings can be large; an effect the other way counts as inactive or inconclusive; further: potency means the concentration at half of the fitted maximal effect)
Summary of the method: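 Reporter gene assay, HepG2 ARE-luc: 16 hr compound, 37 C, 5% CO2; read-out luciferase luminescence.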

[15] = MultiTox-Fluor Cytotoxicity Assay - LYMP1-003 - Live Cells (AID 962; active means well fitted curve in the direction sought with a large enough effect; inconclusive means small, poorly fitted or top-dose-only effect, or another doubt; inactive means no such curve, though single readings can be large; an effect the other way counts as inactive or inconclusive;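 further: cells exposed to compound for 16 hours at 37 °C; 0% = DMSO only and full loss = 92 µM tetraoctylammonium bromide; cytotoxic hits lower the live-cell protease signal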); conditions: LYMP1-003 lymphoblastoid cells, MultiTox-Fluor live-cell protease fluorescence; at 92.2 µM (top of the series)
Summary of the method: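 Human lymphoblastoid line LYMP1-003 in complete culture medium, treated 16 hr with titrated compounds. Viable cells quantified via cell-permeant GF-AFC substrate fluorescence; AC50 derived by Hill fitting.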

[16] = qHTS assay to identify small molecules that stimulate interleukin-8 (IL-8) secretion (AID 651758; active means well fitted activation curve with a large enough effect in the signal ratio; inconclusive means small, poorly fitted or top-dose-only effect, or effect the other way, or a change in a side signal; the % refers to the signal ratio; further: 0% is about no effect); conditions: HTRF ratio (665/615); activation: at 92.2 µM (top of the series)
Summary of the method: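 Compounds are added to THP-1 cells (2000 per well) and left 16 hrs at 37 C. A labeled anti-IL-8 antibody pair is then added, and IL-8 secretion is measured by time-resolved FRET after 1-3 hrs at room temperature.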

[17] = Cellular Toxicity (caspase-3) N2a (AID 665; active means well fitted curve in the direction sought with a large enough effect; inconclusive means small, poorly fitted or top-dose-only effect, or another doubt; inactive means no such curve, though single readings can be large; an effect the other way counts as inactive or inconclusive;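 further: compound exposure lasted 16 h at 37 °C before readout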); conditions: N2a cells, luminescence, normalized: DMSO 0%, 10 µM staurosporine 100%; at 92.2 µM (top of the series)
Summary of the method: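 Concentration-response qHTS: compound-induced caspase-3/7 luminescence in N2a cells (16 h, 37 °C), relative to DMSO and 10 uM staurosporine controls; AC50 obtained using the standard Hill equation.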

[18] = target: Cytochrome P450 3A4 (Homo sapiens) (UniProt P08684); assay: qHTS Assay for Inhibitors and Substrates of Cytochrome P450 3A4 (AID 884; active means well fitted curve in the direction sought with a large enough effect; inconclusive means small, poorly fitted or top-dose-only effect, or another doubt; inactive means no such curve, though single readings can be large; an effect the other way counts as inactive or inconclusive; further: on the % scale 0 is the no-effect control and ±100 the full control effect; nearly all actives have a fitted effect of over 50% in size); conditions: recombinant CYP3A4, Luciferin-PPXE luminescence; activity change, negative = inhibition: at 57.1 µM (top of the series) unless noted
Summary of the method: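 Luminescent readout of luciferin produced by CYP3A4 (20 nM) dealkylation of Luciferin-PPXE, 25 uM (its KM). NADPH-driven reaction ran 60 min at RT after 10 min compound preincubation; data scaled to 57 uM ketoconazole as 100% inhibition.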

[19] = Cell Viability - LYMP2-005 (AID 967; active means well fitted curve in the direction sought with a large enough effect; inconclusive means small, poorly fitted or top-dose-only effect, or another doubt; inactive means no such curve, though single readings can be large; an effect the other way counts as inactive or inconclusive;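 further: cells exposed to compound for 24 h at 37 °C; plate controls were DMSO only for no effect and 92 µM tetraoctylammonium bromide control for full effect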)
Summary of the method: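 Acute cytotoxicity is scored as a concentration-dependent drop in intracellular ATP in human lymphoblastoid LYMP2-005 cells after 24 h compound treatment. ATP is quantified by luciferase luminescence, and AC50 is derived by Hill-equation modelling.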

[20] = target: Androgen receptor (Homo sapiens) (UniProt P10275); assay: qHTS assay for small molecule antagonists of androgen receptor signaling (AID 588516; active means well fitted curve in the direction sought with a large enough effect in the signal ratio, with a control signal flat, not every such curve was filed as active; inconclusive means small, poorly fitted or top-dose-only effect, or effect the other way, or a change in a side signal; inactive means no such curve, though single readings can be large or run the other way; the % refers to the signal ratio; further: on the % scale 0 is the no-effect control and ±100 the full control effect); conditions: AR-UAS-bla HEK293, beta-lactamase ratio, antagonist mode, 16 h; activity change, negative = inhibition: at 76.8 µM (top of the series)
Summary of the method: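 Antagonist mode: inhibition of R1881-stimulated (10 nM final) bla reporter in GeneBLAzer AR HEK 293 cells, 16 h at 37C, compounds titrated. IC50 and efficacy from Hill-equation fits of 405/460–530 nm FRET ratios.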

[21] = qHTS assay for small molecule disruptors of the mitochondrial membrane potential - 1 hr assay (AID 651754); conditions: ratio change, negative = depolarisation: at 92.2 µM (top of the series); further: on the % scale 0 is the no-effect control and ±100 the full control effect; nearly all actives have a fitted effect of over 35% in size
Summary of the method: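 In this qHTS format, a 1 hr compound treatment of HepG2 cells precedes Mito-MPS staining, and membrane potential is judged from aggregate (red) against monomer (green) fluorescence intensity.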

[22] = activity, negative = inhibition: at 76.8 µM (top of the series) unless noted
Tags describe the fitted curve by direction and shape or compound fluorescence and quenching.

UniProt P03372, sequence (P03372 whole entry, looked up): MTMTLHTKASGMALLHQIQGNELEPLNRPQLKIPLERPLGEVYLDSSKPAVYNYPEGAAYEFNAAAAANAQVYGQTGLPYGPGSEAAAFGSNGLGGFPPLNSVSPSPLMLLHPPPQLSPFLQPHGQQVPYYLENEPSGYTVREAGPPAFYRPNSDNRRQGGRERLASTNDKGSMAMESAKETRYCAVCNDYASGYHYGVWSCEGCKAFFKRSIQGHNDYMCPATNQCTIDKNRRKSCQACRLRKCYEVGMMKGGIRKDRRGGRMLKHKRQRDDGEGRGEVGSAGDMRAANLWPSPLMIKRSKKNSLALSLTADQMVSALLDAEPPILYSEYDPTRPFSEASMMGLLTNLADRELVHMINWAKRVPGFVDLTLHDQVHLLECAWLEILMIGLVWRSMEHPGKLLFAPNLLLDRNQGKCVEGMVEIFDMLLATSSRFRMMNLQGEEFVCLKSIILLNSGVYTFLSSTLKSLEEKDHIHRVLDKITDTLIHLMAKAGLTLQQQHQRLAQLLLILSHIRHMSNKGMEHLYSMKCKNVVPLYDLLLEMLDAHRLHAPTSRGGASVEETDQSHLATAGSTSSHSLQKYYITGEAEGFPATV
UniProt Q03181, sequence (Q03181 whole entry, looked up): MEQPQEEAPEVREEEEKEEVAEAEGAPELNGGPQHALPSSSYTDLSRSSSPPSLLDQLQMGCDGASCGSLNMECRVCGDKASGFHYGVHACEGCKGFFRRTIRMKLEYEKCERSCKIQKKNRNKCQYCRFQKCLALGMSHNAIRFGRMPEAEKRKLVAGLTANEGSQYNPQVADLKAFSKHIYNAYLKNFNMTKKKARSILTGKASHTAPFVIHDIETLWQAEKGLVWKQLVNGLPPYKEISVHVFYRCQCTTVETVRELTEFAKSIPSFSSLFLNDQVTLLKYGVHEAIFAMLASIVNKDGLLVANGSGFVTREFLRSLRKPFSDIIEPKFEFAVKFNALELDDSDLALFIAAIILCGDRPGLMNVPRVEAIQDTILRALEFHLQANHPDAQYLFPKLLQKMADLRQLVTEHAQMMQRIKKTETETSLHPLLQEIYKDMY
UniProt P19793, sequence (P19793 whole entry, looked up): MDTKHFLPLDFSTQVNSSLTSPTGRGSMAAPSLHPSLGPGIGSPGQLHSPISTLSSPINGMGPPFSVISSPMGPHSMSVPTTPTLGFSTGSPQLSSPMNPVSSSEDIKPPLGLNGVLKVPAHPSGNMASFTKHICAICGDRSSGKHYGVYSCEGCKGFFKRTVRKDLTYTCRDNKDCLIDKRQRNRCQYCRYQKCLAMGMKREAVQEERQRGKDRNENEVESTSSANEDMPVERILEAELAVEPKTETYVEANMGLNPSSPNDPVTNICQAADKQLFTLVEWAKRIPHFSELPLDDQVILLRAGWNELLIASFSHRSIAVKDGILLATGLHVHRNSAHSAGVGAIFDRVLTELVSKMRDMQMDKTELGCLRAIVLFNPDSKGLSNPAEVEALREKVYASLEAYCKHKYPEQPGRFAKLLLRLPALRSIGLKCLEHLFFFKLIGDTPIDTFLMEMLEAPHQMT
UniProt P10828, sequence (P10828 whole entry, looked up): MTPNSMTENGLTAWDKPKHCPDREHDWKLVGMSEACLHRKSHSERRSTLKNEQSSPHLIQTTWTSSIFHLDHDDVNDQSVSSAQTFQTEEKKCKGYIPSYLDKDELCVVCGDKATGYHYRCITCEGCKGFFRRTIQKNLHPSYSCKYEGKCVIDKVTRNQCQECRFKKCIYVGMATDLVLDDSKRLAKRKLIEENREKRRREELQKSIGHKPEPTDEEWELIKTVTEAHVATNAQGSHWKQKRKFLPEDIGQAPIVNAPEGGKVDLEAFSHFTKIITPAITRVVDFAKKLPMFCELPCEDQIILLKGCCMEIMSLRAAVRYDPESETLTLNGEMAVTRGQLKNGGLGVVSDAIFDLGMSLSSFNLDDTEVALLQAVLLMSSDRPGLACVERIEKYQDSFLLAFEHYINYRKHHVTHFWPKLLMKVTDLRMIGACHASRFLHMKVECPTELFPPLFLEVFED
UniProt P10275, sequence (P10275 whole entry, looked up): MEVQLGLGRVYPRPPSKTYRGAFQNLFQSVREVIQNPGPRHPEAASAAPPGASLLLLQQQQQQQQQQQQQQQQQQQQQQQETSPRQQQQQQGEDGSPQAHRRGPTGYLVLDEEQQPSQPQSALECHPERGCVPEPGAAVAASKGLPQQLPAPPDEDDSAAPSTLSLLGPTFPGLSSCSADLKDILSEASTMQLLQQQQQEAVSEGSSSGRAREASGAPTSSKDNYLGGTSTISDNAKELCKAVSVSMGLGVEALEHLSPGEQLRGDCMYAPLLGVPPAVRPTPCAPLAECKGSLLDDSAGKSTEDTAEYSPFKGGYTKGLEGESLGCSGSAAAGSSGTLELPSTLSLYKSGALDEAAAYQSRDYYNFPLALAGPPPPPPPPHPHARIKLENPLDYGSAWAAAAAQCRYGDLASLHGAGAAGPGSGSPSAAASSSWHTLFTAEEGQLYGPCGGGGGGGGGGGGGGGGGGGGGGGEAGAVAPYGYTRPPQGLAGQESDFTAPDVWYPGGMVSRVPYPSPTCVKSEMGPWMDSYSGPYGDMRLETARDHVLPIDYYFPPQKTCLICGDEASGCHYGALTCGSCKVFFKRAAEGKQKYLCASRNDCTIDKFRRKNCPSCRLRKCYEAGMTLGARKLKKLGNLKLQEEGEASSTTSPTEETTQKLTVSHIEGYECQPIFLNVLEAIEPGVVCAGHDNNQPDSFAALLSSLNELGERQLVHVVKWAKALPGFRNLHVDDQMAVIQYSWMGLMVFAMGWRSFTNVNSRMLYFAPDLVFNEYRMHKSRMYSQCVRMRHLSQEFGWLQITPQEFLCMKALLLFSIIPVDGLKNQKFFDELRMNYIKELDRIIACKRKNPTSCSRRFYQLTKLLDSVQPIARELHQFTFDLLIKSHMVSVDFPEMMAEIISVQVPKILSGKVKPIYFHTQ
UniProt P08684, sequence (P08684 whole entry, looked up): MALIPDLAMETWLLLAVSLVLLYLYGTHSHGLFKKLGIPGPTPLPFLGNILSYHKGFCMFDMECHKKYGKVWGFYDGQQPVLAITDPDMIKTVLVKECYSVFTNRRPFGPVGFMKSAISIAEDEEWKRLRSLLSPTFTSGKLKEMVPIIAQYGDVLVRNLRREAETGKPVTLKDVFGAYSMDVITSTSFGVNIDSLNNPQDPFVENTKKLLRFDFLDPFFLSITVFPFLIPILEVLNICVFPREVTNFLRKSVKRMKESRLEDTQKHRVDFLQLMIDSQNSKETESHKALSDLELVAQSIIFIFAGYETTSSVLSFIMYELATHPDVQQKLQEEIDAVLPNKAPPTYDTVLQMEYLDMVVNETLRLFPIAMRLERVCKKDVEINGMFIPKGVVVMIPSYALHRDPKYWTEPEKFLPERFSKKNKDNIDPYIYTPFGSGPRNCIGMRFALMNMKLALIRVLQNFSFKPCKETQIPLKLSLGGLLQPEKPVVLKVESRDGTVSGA

CC(=O)OC1CCC(C(C)(C)C)CC1 (stereo not given)
inconclusive: Potency [2] 7.94 µM [side channel, rising, partial curve, poor fit]
inactive: Potency [1] | Potency [3] | Potency [4]

O=S(=O)(O)c1ccc(N=Nc2cc(S(=O)(=O)O)c3ccccc3c2O)c2ccccc12
inconclusive: activity, negative = inhibition [1] -32% | activation [2] 37.8% | activity change % (negative = inhibition) [5] -9.93% | activation [4] 19.4% | max response [6] -41.6%
active: Potency [7] 44.7 µM

Nc1cc(Cl)c(O)c(Cl)c1
active: Potency [14] 68.6 µM
inactive: Potency [10, 22]
inconclusive: Potency [1] 20 µM [fluorescent, side channel, full curve, poor fit] | Potency [2] 44.7 µM [side channel, rising, partial curve, poor fit] | Potency [8] 17.8 µM [fluorescent, side channel, single point] | Potency [3] 39.8 µM [fluorescent, side channel, single point] | Potency [9] 39.8 µM [activator, partial curve] | Potency [11] 44.7 µM [falling, partial curve] | Potency [12] 39.8 µM [side channel, rising, partial curve, poor fit] | Potency [13] 35.5 µM [side channel, rising, partial curve, poor fit] | Potency [5] 44.7 µM [falling, single point]

CCOc1cccc(N)c1
inconclusive: Potency [4] 75 µM [activator, single point] | activation [16] -12.6%
inactive: activity change, negative = fewer live cells [15] -0.21% | Potency [1] | Potency [2] | Potency [10, 22] | Potency [11]

CCCN(CCC)C(=O)SCC
inconclusive: activity, negative = inhibition [1] 22.2% | activation [9] -4.92% | activity, negative = inhibition [10, 22] 9.09% | Potency [4] 6.68 µM [side channel, rising, full curve, poor fit] | ratio change, negative = depolarisation [21] -0.914% | activation [16] -17.7%
inactive: caspase-3 activation [17] -0.85% | Potency [18] | Potency [19] | Potency [20] | activity, negative = inhibition ([10]; at 76.8 µM (top of the series)) 10.3% | Potency [11]

From PubChem BioAssay (NCATS)
